Out of some 420,000 compounds screened, about 64,000 (15%) were called active. This list was built around the results that the source calls inconclusive (neither active nor inactive); the mix of calls is not that of the screen. Calls follow the shape of the dose curve; as a rule, active = well fitted inhibition curve with a large enough effect; inconclusive = small, poorly fitted or top-dose-only effect; inactive = flat fitted curve, though single readings scatter. No potency is given beside an inconclusive call; the fits are too rough.
Assay: qHTS for Inhibitors of human tyrosyl-DNA phosphodiesterase 1 (TDP1): qHTS in cells in absence of CPT; also: nearly all actives have a fitted effect of over 55% in size
Conditions: DT40 Tdp1-/- hTDP1 cells, no CPT, ATP luminescence, 48 h; activity change, negative = growth inhibition: at 46.2 µM (top of the series) unless noted
How it was run: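 Growth of hTDP1-complemented DT40 Tdp1-knockout cells is measured by ATP luminescence after at least 48 hr compound exposure at 37 °C, with DMSO substituting for the 20 nM CPT used in the parallel screen.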
% is scaled to controls: 0 for no effect and ±100 for the full control effect; potency is read from the fitted curve at half-maximal effect; tags tell the direction and shape of the fitted curve.

Structure (SMILES) | activity change, negative = growth inhibition | Potency
CC(=O)Nc1ccc(-c2noc(-c3csc([C@@H]4C[C@H](O)[C@@H](CO)O4)n3)n2)cc1 | inactive: -14.5% | –
CCOn1c(=O)c(-c2cccs2)[n+]([O-])c2ccccc21 | inactive: -8.97% | –
Cc1ccc(-n2c(O)c(C=NC3CCS(=O)(=O)C3)c3ccccc3c2=O)c(C)c1 (configuration not stated) | – | inconclusive [inhibitor, single point]
CC(C)(C)OC(=O)N1CCC[C@H]1c1nnc(SCc2ccc(Cl)cc2Cl)o1 | – | active: 14.6 µM
Cc1ccc(-n2c(SCc3ccccc3)nc3c([nH]c4ccccc43)c2=O)cc1 | inactive: -4.79% | –
Cc1cccc(NC(=O)N(Cc2cc3cc(C)ccc3[nH]c2=O)CC2COCCO2)c1 (configuration not stated) | – | active: 23.1 µM
Cc1cc(C2N=C(N)Nc3nc4ccccc4n32)c(C)n1-c1ccccc1Cl (configuration not stated) | – | inconclusive [inhibitor, single point]
CCn1c(CN2CCOCC2)nnc1SCC(=O)Nc1ccccc1Cl | inactive: -7.91% | –
O=C1CCCN1c1ccc(S(=O)(=O)N2CCC(c3ccccc3)CC2)cc1 | – | inconclusive [inhibitor, partial curve]
COc1ccc(Cl)cc1NC(=S)NNC(=O)C1(C)CC1(Cl)Cl (configuration not stated) | – | inconclusive [inhibitor, single point]
O=C(Nc1ccc(-c2nc3cc(Cl)ccc3o2)cc1)c1cc2ccccc2o1 | – | inconclusive [inhibitor, partial curve, poor fit]
Cn1c(=O)c(=O)n(C)c2cc(S(=O)(=O)CCC(=O)N3CCCCC3)ccc21 | inactive: -4.15% | –
COc1cc(C(=O)Nc2ccc(NC(=O)c3ccccc3)nc2)cc(OC)c1OC | – | inconclusive [inhibitor, single point]
CCCCC(c1nc2ccccc2[nH]1)n1c(=O)c(-c2ccccc2)nc2cc(C)c(C)cc21 (configuration not stated) | inactive: -12.2% | –
CCC1(C)Cc2c(sc3nc(SC)n(-c4ccc(C)cc4)c(=O)c23)CO1 (configuration not stated) | – | active: 14.6 µM
COc1ccc(CNC(=O)c2ccc3nc(-c4ccc(F)cc4)c(-c4ccc(F)cc4)nc3c2)cc1 | inactive: -27.2% | –
CC(C)OC(=O)CC(=O)CSc1nc2c(c(-c3cccs3)c1C#N)CCC2 | – | inconclusive [inhibitor, single point]
CN(CC(=O)N1CCN(Cc2ccccc2)CC1)S(=O)(=O)c1ccc(Br)cc1 | – | inconclusive [inhibitor, single point]
CC1(C)c2ssc(=S)c2-c2ccccc2N1C(=O)c1ccco1 | – | inconclusive [inhibitor, single point]
O=[N+]([O-])c1ccc(NC(=S)NCCc2ccc(Cl)cc2)cc1 | – | active: 5.17 µM
CCN(CC)S(=O)(=O)c1cc(Br)c(C)cc1OC | inconclusive: -34% [inhibitor] | –
Cc1nc(N2CCC(C)CC2)c2oc3ccccc3c2n1 | – | inconclusive [inhibitor, partial curve]
COCCCN(C(=S)Nc1cc(Cl)cc(Cl)c1)C(C)c1ccncc1 (configuration not stated) | – | inconclusive [inhibitor, single point]
CCCCNC(C(=O)Nc1ccc(Cl)c([N+](=O)[O-])c1)c1ccccc1 (configuration not stated) | – | active: 20.6 µM

Structure (SMILES) | activity change, negative = growth inhibition | Potency
Cc1cc(C)c(CN2CCC(N3CCC(C(=O)NCC4CCCO4)CC3)CC2)cc1C (configuration not stated) | – | inconclusive [inhibitor, single point]
COc1ccc(CCNS(=O)(=O)c2ccc3c(c2)CC(C)N3C(C)=O)cc1OC (configuration not stated) | – | inconclusive [inhibitor, single point]
NS(=O)(=O)c1ccc(CCNS(=O)(=O)c2ccccc2)cc1 | inactive: -11.5% | –
CC(=O)Nc1ccc(C(=O)Nc2ccc(S(=O)(=O)N3CCCCC3)cc2)cc1 | inactive: -23.9% | –
CCOC(=O)N1CCN(C(=O)CSc2nc3c([nH]c4ccccc43)c(=O)n2CC)CC1 | – | active: 14.6 µM
CCOc1ccc(CSC(=N)N)cc1Cl | – | active: 11.6 µM
CC1Cc2ccccc2N1C(=O)CCn1c(=O)sc2ccccc21 (configuration not stated) | – | active: 16.4 µM
COc1ccc(Cn2c(SCc3ccc(C(=O)NC(C)c4ccccc4)cc3)nc3cccnc32)cc1 (configuration not stated) | – | inconclusive [inhibitor, partial curve, poor fit]
COC(=O)[C@H](NC(=O)c1cc([C@@H](NC(=O)OC(C)(C)C)C(C)C)sc1N)C(C)C | – | inconclusive [inhibitor, single point]
Cc1ccc(C)n1CCN1CCN(C(=O)CC#N)CC1 | – | inconclusive [inhibitor, single point]
CCSc1cnc(-c2ccccc2)n1CC | – | inconclusive [inhibitor, single point]
COc1cc(NC2c3ccccc3C(=O)N2Cc2ccccc2)cc(OC)c1OC (configuration not stated) | – | inconclusive [inhibitor, single point]
O=C(CCC(=O)OCC(=O)c1ccc(C(F)(F)F)cc1)OCC(=O)c1ccc(C(F)(F)F)cc1 | inactive: 3.38% | –
CCCCCc1cc(=O)oc2c(C(CCN3CCCC(C)C3)c3ccc4c(c3)OCO4)c(OC)cc(OC)c12 (configuration not stated) | – | inconclusive [inhibitor, single point]
CCOc1ccc2nc(/N=C/c3nc(-c4ccc(Br)cc4)oc3O)sc2c1 | inconclusive: -35.2% [inhibitor] | –
COc1ccc(NC(=O)NNC(=O)C(C)Oc2ccc(C(C)C)cc2)c(OC)c1 (configuration not stated) | inactive: -11.7% | –
O=C(NNC(=O)c1ccco1)c1ccc(NS(=O)(=O)c2cccs2)cc1 | inactive: -13.8% | –
O=C(Nc1ccccc1)C1CCN(C(=O)c2ccc(Br)cc2)CC1 | inactive: -16.2% | –
C1CCc2c(nc3nnnn3c2NC2CCCC2)C1 | – | inconclusive [inhibitor, single point]
CC(c1nc2ccccc2[nH]1)N(C(=O)Cc1csc2ccccc12)c1cccnc1 (configuration not stated) | – | inconclusive [inhibitor, single point]
CN(Cc1ccccc1)C(=O)c1ccc(Cl)c([N+](=O)[O-])c1 | – | inconclusive [inhibitor, single point]
Cc1nnsc1SCCNC(=O)Nc1ccc(Cl)cc1 | – | inconclusive [inhibitor, single point]
CC1(C)Cc2c(c(N3CCOCC3)nc3sc4c(NCc5ccco5)nnnc4c23)CS1 | – | active: 18.4 µM
Cc1ccc(OCc2ccc([N+](=O)[O-])cc2)c([N+](=O)[O-])n1 | inactive: -2.2% | –

Structure (SMILES) | activity change, negative = growth inhibition | Potency
Cc1nc(S/C(C(=O)O)=C2/C(=O)Nc3ccccc32)n[nH]1 | – | inconclusive [inhibitor, single point]
Cc1cccc(N2CCN(C(=O)CS(=O)(=O)Cc3nc(-c4ccccc4C)oc3C)CC2C)c1 (configuration not stated) | – | inconclusive [inhibitor, single point]
S=c1nc2c(n[nH]1)c1ccccc1n2CCc1ccccc1 | – | inconclusive [inhibitor, single point]
CC(C)(C)c1cc(C(=O)NNc2cccc(Cl)c2)n(Cc2ccccc2)n1 | – | inconclusive [inhibitor, single point]
CCOc1ccc(N(Cc2ccccc2)C(=O)c2nc(S(C)(=O)=O)ncc2Cl)cc1 | – | active: 0.58 µM
Cc1cccc(C)c1NC1=NC2(CCCCC2)N=C(N)N1 | inactive: 9.35% | –
COc1cc(NS(C)(=O)=O)ccc1Cc1c2ccccc2nc2ccccc12 | – | active: 0.164 µM
CCc1ccc(S(=O)(=O)c2nnn3c2nc(Nc2ccc(NC(C)=O)cc2)c2sccc23)cc1 | – | inconclusive [inhibitor, partial curve]
COc1ccc(OC)c(NC(=O)Cn2c(=O)cc(-c3ccccc3)c3c(C)nn(C)c32)c1 | – | active: 20.6 µM
O=C(NCCC1CCCCN1S(=O)(=O)c1cccs1)C(=O)NCc1ccccc1 (configuration not stated) | – | active: 20.6 µM
Fc1cc(F)c2nc(N3CCCCC3)sc2c1 | inactive: -11.2% | –
O=C(CCCCCn1c(=O)[nH]c2ccccc2c1=O)N1CCN(Cc2ccc3c(c2)OCO3)CC1 | – | inconclusive [inhibitor, single point]
CCn1cc(C(=O)Nc2cccc(NC(C)=O)c2)c2cc(OC)c(OC)cc2c1=O | – | inconclusive [inhibitor, single point]
Cc1cc(C)nc(N2CCCC(C(=O)Nc3cccc(Cl)c3)C2)n1 (configuration not stated) | – | inconclusive [inhibitor, single point]
O=C(CNC(=O)c1ccc(Br)cc1)c1ccc(Br)cc1 | inactive: 12.2% | –
Cc1[nH]c2ccccc2c1C(=O)/C=C/c1ccccc1 | – | inconclusive [inhibitor, single point]
COc1cccc(OCCn2ccnc2)c1 | inconclusive: -32.1% [inhibitor] | –
O=S(=O)(c1cccs1)N1CCN(Cc2nc3ccccc3s2)CC1 | – | inconclusive [inhibitor, single point]
COc1cc(C=NNC(=O)c2cccnc2)ccc1OC(=O)c1ccccc1F | inactive: 9.33% | –
CC(=O)c1c(C)oc2c1cc(NS(=O)(=O)c1ccc(Cl)c(C)c1)c1ccccc12 | – | inconclusive [inhibitor, single point]
CC(C)C(N)C(=O)O (configuration not stated) | inactive: -5.11% | –
CCOC(=O)[C@]12CCC=C1N(CCC1=CCCCC1)C(=O)[C@H](CC(=O)NCCCOC)C2 | – | inconclusive [inhibitor, partial curve, poor fit]
O=S(=O)(NCc1nc2cccnc2n1Cc1ccccc1Cl)c1ccc(F)c(Cl)c1 | – | inconclusive [inhibitor, single point]
CC(C)(C)C(=O)C1=C(O)C(=O)N(Cc2ccccc2)C1c1ccccc1Cl (configuration not stated) | – | inconclusive [inhibitor, single point]

From PubChem BioAssay AID686978 (National Center for Advancing Translational Sciences (NCATS), 2013)
